The text below walks through data of the supplement of paper PMC11417369.

Some of the results follow.

The experiment relates to PfHDP1 homeodomain (GST-tagged). The experiment can be described thus: gcPBM binding intensity (ln(normalized median fluorescence intensity)); higher = stronger DNA binding. The gist of the method:
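DNA-binding domains from P. falciparum, fused to GST and produced in E. coli, were put on an Agilent 4 × 180k double-stranded probe array for 1 h in 1× PBS holding 1% milk, 0.2 mg/ml BSA, 0.5% salmon testes DNA and 0.03% Triton X-100. Probes were primer-extended, 36 bp long and drawn from intergenic genomic regions, with negative controls included. After Alexa488 anti-GST antibody detection and a 488 nm scan, binding intensity was set as the highest Masliner-normalised natural-log median intensity across replicate spots of either probe orientation.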
With “AAATATAAATATACTCGTACATATATATATATATAT [XGTACX_site6940]”, the “gcPBM binding intensity (ln)” value was 9.34.

“TTTTCTTTTAAGTTTGTTTTACACTTTTTATTTTGA [CACACA_negctrl_site1581]”: the “gcPBM binding intensity (ln)” value was determined as 6.43. With “TATACGTATTTTATATGTACACATATACATATTTAT [XGTACX_site5301]”, the “gcPBM binding intensity (ln)” value came out at 6.58. On to “AATATATGGTTTCATGATATTAAATTCAATTTAATG [GTGCAC_negctrl_site370]”, for which the “gcPBM binding intensity (ln)” value turned out to be 6.05.

In the case of “CTATTATAATATTTTACACACCATGTAAAATATATA [CACACA_site3206]”, the “gcPBM binding intensity (ln)” value turned out to be 6.54. Consider “CTATTTTGGATGTGTACACATATATATATTTATATT [CACACA_site5706]”, for which the “gcPBM binding intensity (ln)” value was 7.58.

For “ATCATTCTTCATTTGTCACACATGATAAAAATATAT [CACACA_site4953]”, the “gcPBM binding intensity (ln)” value worked out at 6.72. For the sequence “CATTAACATTTTATTACACACAATAATTTATAAGTA [CACACA_site4083]”, the “gcPBM binding intensity (ln)” value worked out at 6.64. In the case of “TTTTTTAAGTAATGAAATGATTTTCTTATAGAATAA [GTGCAC_negctrl_site395]”, the “gcPBM binding intensity (ln)” value turned out to be 5.73.

“GCTTTTGTCATGTGCACACACGTATATATTATATAT [CACACA_site6146]”: the “gcPBM binding intensity (ln)” value was 11.5.

“ATTTATATTTGTATTTGTACTTATATTTATATTTAT [XGTACX_site1540]”: the “gcPBM binding intensity (ln)” value turned out to be 6.28. The figure for AAAAAGGTTAAGGTAGTGCATAATAAAGAATATTAA is 8.58. Take “TTAAATAGATAAACTAAACACACAAAAAAAAAAAAA [CACACA_site8308]”: the “gcPBM binding intensity (ln)” value came to 6.23.

Regarding “GCTAAAAGTATATGCACACACATATATATGCACATA [CACACA_site1635]”, the “gcPBM binding intensity (ln)” value was 11. The figure for TTTTGTACTTCATGCGTGCACAGAAATATATTATAT is 9.51; for “GAATAAGATAGATATACACACCATTATAAATATAAA [CACACA_site5392]” it is 6.38; for “TAAATACTAATATGTACACACATATAGATATAGATT [CACACA_site7247]” it is 6.1. The figure for “TGTGCAAGATTTTTCTGTACATATATATAAATATAT [XGTACX_site1796]” is 6.63; for “AAATATTCTTGTTTAATACACACTGTAGTATTATAT [CACACA_site433]” it is 6.77. With “ATTTATTTATATAATACACACAAATATCTTAATTAA [CACACA_site3993]” the figure was 6.41; with “TGGATATAAAACAACGTGCACTTGGTTGATTTTAAA [GTGCAC_site9900]”, 8.31. For “TATGGTAAATACAACACACACACATATGTATTTATA [CACACA_site4666]”, the “gcPBM binding intensity (ln)” value came out at 6.99. “TTTTTTTTTTTTTTTTTTGGTGAGAGAAGAAAATTC [CACACA_negctrl_site950]”: the “gcPBM binding intensity (ln)” value was 6.1. The figure for TAGGCCTTAAATCGTGTGCACTTTTTTTTTTTTTTT is 8.22.

With “TATGTGCCAAAACACACACACATATATATATATATA [CACACA_site469]”, the “gcPBM binding intensity (ln)” value stood at 9.33. With “CAAATTATTATTTAAGCACACATGTTTATTTTTTTT [CACACA_site2672]” the figure was 6.41; with “AAATATATCAATATATATATATATATATATATATAT [XGTACX_negctrl_site544]”, 9.66. As to “AAGCATACATCAAGCACACACACACCCACACCCACA [CACACA_site372]”, the “gcPBM binding intensity (ln)” value turned out to be 6.67. With “TTTTGTACAAAAATAATGCACACTATATCAAGTTTT [CACACA_site3595]”, the “gcPBM binding intensity (ln)” value came to 10.4. With “ATATAAAAAGGAAAAAGTACAAAAAAATGTTTGTGA [XGTACX_site8552]” the figure was 6.32; with “AAGAAAATATATTCACATGAAGAATTAAAATAAAAC [TGCATGCA_negctrl_site119]”, 6.66.

With “TAATAATTATTGCACGCACACAAAAACCTATAGATT [CACACA_site2931]”, the “gcPBM binding intensity (ln)” value turned out to be 10.6. The figure for “ATTTATAAAACAGGCACACATATAATAAATTTTATA [CACACA_site2600]” is 6.64; for “ACTATAAATATTTATAAACACACAAATATATATATT [CACACA_site7891]” it is 6.73.

As for “ATTTTTTTTTTTACAGTGGAACCATATTTGCTCATT [CACACA_negctrl_site940]”, the “gcPBM binding intensity (ln)” value was 7.34. Regarding “ATACAATACACCGAACGTACATAAATCTATCTTTTA [XGTACX_site3668]”, the “gcPBM binding intensity (ln)” value came out at 7.02. Regarding “TATATATATATAATTTGTACATATATATGTAACAAT [XGTACX_site8728]”, the “gcPBM binding intensity (ln)” value came out at 8.94.

Take “TTCTGCTACCACTTGAATGTCAATGAAATTAAAAAA [CACACA_negctrl_site1164]”: the “gcPBM binding intensity (ln)” value worked out at 6.6. With “AAAGAAATAAAAAAAAGTACACAATTATAAATATAT [XGTACX_site3428]” the figure was 6.62; with “GTATGTAATATTTTAGTGCAAAAAAAAAAAAAAAAA [GTGCAC_site9790]”, 9.58. The figure for “AAAATACTTTGAATTTGTACATATAGACATAATATT [XGTACX_site6181]” is 6.43. The figure for “CGCGAACATACATACACACACATATTTATATAGGTA [CACACA_site6241]” is 6.69. On to “ATAATAAATGATAGCACACATATGTACATATATACA [CACACA_site864]”, for which the “gcPBM binding intensity (ln)” value was found to be 6.75. On to “AATACCGGAAAGCAAACACACATTTTAAAACCATAA [CACACA_site3862]”, for which the “gcPBM binding intensity (ln)” value is 6.73.
